Assay results published in the supplement of paper PMC9446081.
The whole screen tested about 39,000 compounds, of which about 220 (0.56%) showed activity. Some of the results follow.

Each molecule was assayed on Escherichia coli K-12 BW25113 (assay: relative growth (OD600 normalised to plate interquartile mean) (fraction); higher = less growth inhibition, active = 0.2 or less). Settings: 50 µM; LB; incubation time: overnight (16-24 h).
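Note: static incubation at 37 °C against the wild-type strain, values averaged over two biological replicates.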

Structure (SMILES)	relative growth
N[C@H](CC(=O)O)C(=O)O	inactive: 1.01
O=C1O[C@H](c2ccccc2)[C@H](c2ccccc2)N2[C@H]1[C@@H](C(=O)O)[C@]1(C(=O)Nc3ccc(C#CC4=CCCCC4)cc31)[C@H]2c1ccc(O)cc1	inactive: 0.974
C[C@H](CO)N1C[C@H](C)[C@H](CN(C)C(=O)Nc2ccc3c(c2)OCO3)Oc2ccc(NC(=O)Nc3ccc(C(F)(F)F)cc3)cc2C1=O	inactive: 0.992
CC(C)=CCC/C(C)=C/CC/C(C)=C/CC/C(C)=C/CO	inactive: 1.1
C[C@H](CO)N1C[C@H](C)[C@@H](CN(C)CC2CCCCC2)OCCCC[C@H](C)Oc2ccc(NS(=O)(=O)c3ccc(Cl)cc3)cc2C1=O	inactive: 0.992
C[C@@H]1CN([C@@H](C)CO)C(=O)Cc2cc(NC(=O)Nc3ccc(C(F)(F)F)cc3)ccc2O[C@@H]1CN(C)S(C)(=O)=O	inactive: 0.978
Cc1noc(C)c1NC(=O)Nc1ccc2c(c1)C(=O)N([C@@H](C)CO)C[C@H](C)[C@@H](CN(C)Cc1ccc3c(c1)OCO3)OCCCC[C@H](C)O2	inactive: 0.991
COc1cc2c(cc1OC)C1C(=O)c3c(O)cc4c(c3OC1CO2)C=CC(C)(C)O4 (stereo not drawn) [alpha-TOXICAROL (dl)]	inactive: 1.08
COC(=O)c1c(CC[C@@H](CO)NC(=O)N[C@@H](Cc2ccccc2)Cn2cc(C3(O)CCCCC3)nn2)oc(C(C)=O)c1C(=O)OC	inactive: 1.01
C[C@H](CO)N1C[C@H](C)[C@@H](CN(C)C(=O)NC2CCCCC2)Oc2ccc(NS(=O)(=O)c3cn(C)cn3)cc2C1=O	inactive: 1.01
CCOC(=O)N1CCC(=C2c3ccc(Cl)cc3CCc3cccnc32)CC1	inactive: 0.852
C[C@@H]1CN([C@H](C)CO)C(=O)CCCn2nncc2CO[C@H]1CN(C)Cc1ccc(C(=O)Nc2ccccc2N)cc1	inactive: 1.01
COc1ccc(NC(=O)N(C)C[C@@H]2Oc3ccc(NC(=O)C4CC4)cc3CC(=O)N([C@H](C)CO)C[C@@H]2C)cc1	inactive: 0.994
COc1ccc(NC(=O)Nc2ccc3c(c2)C(=O)N([C@H](C)CO)C[C@@H](C)[C@@H](CN(C)C(=O)NC2CCCCC2)OCCCC[C@@H](C)O3)cc1	inactive: 1.04
C[C@@H]1CN([C@@H](C)CO)C(=O)c2cc(NC(=O)CCC(F)(F)F)ccc2O[C@@H](C)CCCCO[C@@H]1CN(C)Cc1ccc(C(F)(F)F)cc1	inactive: 1.05
C[C@@H]1CCCCO[C@@H](CN(C)C(=O)Nc2ccc(F)cc2)[C@H](C)CN([C@H](C)CO)C(=O)c2cc(NC(=O)Nc3ccccc3)ccc2O1	inactive: 1.02
Cc1cc(/C=N/O)[nH]c(=O)n1	inactive: 1.02
C[C@@H]1CN([C@H](C)CO)C(=O)Cc2cc(NC(=O)Cc3ccccc3)ccc2O[C@H]1CN(C)S(=O)(=O)c1cn(C)cn1	inactive: 0.996
C[C@@H]1CN([C@H](C)CO)C(=O)c2cc(NC(=O)Nc3ccc(F)cc3)ccc2O[C@H]1CN(C)Cc1ccc(C(F)(F)F)cc1	inactive: 0.99
C[C@H](CO)N1C[C@H](C)[C@H](CN(C)CC2CCCCC2)OCCCC[C@H](C)Oc2ccc(NC(=O)Cc3ccccc3)cc2C1=O	inactive: 0.981
CNS(=O)(=O)c1ccc(C)cc1	inactive: 0.986

Structure (SMILES)	relative growth
CC(=O)N[C@H]1CC[C@@H](CCNC(=O)C2CC2)O[C@@H]1CO	inactive: 0.978
Cc1noc(C)c1S(=O)(=O)Nc1ccc2c(c1)CC(=O)N([C@@H](C)CO)C[C@H](C)[C@@H](CN(C)Cc1ccccc1)O2	inactive: 0.986
C[C@H](CO)N1C[C@H](C)[C@H](CN(C)S(C)(=O)=O)OCCCC[C@H](C)Oc2ccc(NS(=O)(=O)c3ccccc3)cc2C1=O	inactive: 0.991
CN(CC(N)=O)S(=O)(=O)c1ccc(F)cc1	inactive: 0.949
NC(=O)c1ccccc1O	inactive: 1.15
C[C@@H]1CN([C@H](C)CO)C(=O)c2cc(NC(=O)CCC(F)(F)F)ccc2O[C@@H]1CN(C)C(=O)Nc1ccc(C(F)(F)F)cc1	inactive: 1.02
C[C@H]1CN([C@@H](C)CO)S(=O)(=O)c2ccc(C3=CCCCC3)cc2O[C@H]1CN(C)S(=O)(=O)c1cn(C)cn1	inactive: 1.01
C[C@@H]1CN([C@H](C)CO)C(=O)c2cc(NC(=O)CCC(F)(F)F)ccc2O[C@@H](C)CCCCO[C@@H]1CN(C)C(=O)NC1CCCCC1	inactive: 0.983
C[C@@H]1CN([C@@H](C)CO)C(=O)c2cc(NC(=O)Cn3cnnn3)ccc2O[C@@H]1CN(C)Cc1ccc(Cl)c(Cl)c1	inactive: 0.993
COc1ccc(C(=O)CCC(=O)O)c2ccccc12	inactive: 0.944
C[C@@H]1CN([C@H](C)CO)C(=O)c2cc(NC(=O)Nc3ccc(C(F)(F)F)cc3)ccc2O[C@@H](C)CCCCO[C@@H]1CN(C)Cc1ccc(Cl)c(Cl)c1	inactive: 1.04
C[C@@H]1CN([C@H](C)CO)C(=O)c2cc(NC(=O)Cn3cnnn3)ccc2O[C@H]1CN(C)S(=O)(=O)c1ccc(Cl)cc1	inactive: 0.929
COc1c(C)cccc1C(=O)N1CC[C@H](c2nn(CCN)c3ncccc23)C1	inactive: 1.04
COc1ccc(NC(=O)N(C)C[C@H]2Oc3ccc(NC(=O)Nc4cccc5ccccc45)cc3CC(=O)N([C@@H](C)CO)C[C@@H]2C)cc1	inactive: 1.03
COc1cc2c(cc1OC)-c1cc3ccc(OC)c(OC)c3c[n+]1CC2.[Cl-]	inactive: 0.887
CCC(=O)N[C@@H]1C=C[C@@H](CC(=O)OC)O[C@@H]1CO	inactive: 1.03
Cc1noc(C)c1S(=O)(=O)Nc1ccc2c(c1)C(=O)N([C@H](C)CO)C[C@H](C)[C@@H](CN(C)Cc1ccc(C(F)(F)F)cc1)OCCCC[C@H](C)O2	inactive: 1.04
CO[C@@H]1CN(C)C(=O)c2cc(NS(C)(=O)=O)ccc2OC[C@H](C)N(C(=O)C2CCOCC2)C[C@H]1C	inactive: 1.02
C[C@@H]1CN(C)C(=O)c2cc(NC(=O)Nc3ccccc3)ccc2O[C@@H](C)CCCCO[C@@H]1CN(C)S(=O)(=O)c1ccc(F)cc1	inactive: 1.01
COC(=O)C[C@H]1CC[C@H]2[C@@H](COC[C@H](O)CN2S(=O)(=O)c2cn(C)cn2)O1	inactive: 0.974
C[C@H]1CN([C@@H](C)CO)C(=O)CCCn2cc(nn2)CO[C@@H]1CN(C)S(=O)(=O)c1ccc2c(c1)OCCCO2	inactive: 0.982

Structure (SMILES)	relative growth
C[C@@H]1CN([C@H](C)CO)C(=O)c2cc(NC(=O)Cc3cn(C)c4ccccc34)ccc2O[C@H]1CN(C)C(=O)Nc1ccc(C(F)(F)F)cc1	inactive: 1.05
COc1ccc(S(=O)(=O)N(C)C[C@@H]2Oc3ccc(NC(=O)CCCN(C)C)cc3C(=O)N([C@@H](C)CO)C[C@H]2C)cc1	inactive: 1.01
CC[C@@H](Sc1n[nH]c(=O)[nH]c1=O)C(=O)O	inactive: 1.01
CCc1nc2ccc(C(=O)NCc3ccc(OC)cc3)cn2c1N(CC)Cc1cccc(Br)c1	inactive: 0.998
C[C@@H]1COCC(=O)N1	inactive: 1.01
C[C@@H]1CN([C@@H](C)CO)C(=O)c2cc(NS(=O)(=O)c3cccs3)ccc2O[C@H]1CN(C)Cc1ccncc1	inactive: 1.02
C[C@@H]1CN([C@@H](C)CO)C(=O)Cc2cc(NC(=O)CCCN(C)C)ccc2O[C@H]1CN(C)C(=O)Nc1ccccc1	inactive: 0.764
C[C@H]1CCCCO[C@@H](CN(C)Cc2ccc3c(c2)OCO3)[C@@H](C)CN([C@@H](C)CO)C(=O)c2cc(NC(=O)Nc3ccc(C(F)(F)F)cc3)ccc2O1	inactive: 0.982
CC(C)C[C@H](NC(=O)[C@@H](Cc1c[nH]c2ccccc12)NC(=O)[C@H](Cc1ccc(O)cc1)NC(=O)[C@H](CO)NC(=O)[C@H](Cc1c[nH]c2ccccc12)NC(=O)[C@H](Cc1cnc[nH]1)NC(=O)[C@@H]1CCC(=O)N1)C(=O)N[C@@H](CCCNC(=N)N)C(=O)N1CCC[C@H]1C(=O)NCC(N)=O	inactive: 1.02
COc1ccc(C#Cc2ccc3c(c2)O[C@@H](CN(C)C(=O)c2ccccn2)[C@@H](C)CN([C@@H](C)CO)S3(=O)=O)cc1	inactive: 1
C[C@@H]1CN([C@@H](C)CO)C(=O)c2cc(NC(=O)Nc3cccc4ccccc34)ccc2O[C@@H](C)CCCCO[C@@H]1CN(C)C(=O)CCCN(C)C	inactive: 0.991
Cc1ccc(S(=O)(=O)N(C)C[C@H]2Oc3ccc(NC(=O)CCN4CCOCC4)cc3CC(=O)N([C@@H](C)CO)C[C@@H]2C)cc1	inactive: 0.991
COc1ccc(NC(=O)Nc2ccc3c(c2)C(=O)N([C@@H](C)CO)C[C@@H](C)[C@@H](CN(C)S(=O)(=O)c2c(C)noc2C)OCCCC[C@@H](C)O3)cc1	inactive: 1.01
COc1ccccc1C(=O)Nc1ccc2c(c1)C(=O)N(C)[C@@H]1CC[C@H](CC(=O)NCCc3ccncc3)O[C@@H]1CO2	inactive: 1
C[C@H]1Cc2c(N)nn(C)c2NC1=O	inactive: 1
COC(=O)C1CC2=CC(=O)CCC2(C)C23OC2CC2(C)C(CCC24CCC(=O)O4)C13 (stereo unspecified)	inactive: 1.2
COc1ccc(S(=O)(=O)N(C)C[C@@H]2Oc3ccc(NS(=O)(=O)c4cccs4)cc3C(=O)N([C@H](C)CO)C[C@@H]2C)cc1	inactive: 1
C[C@H](CO)N1C[C@H](C)[C@H](CN(C)S(=O)(=O)c2ccccc2)Oc2ccc(NS(=O)(=O)c3ccc(F)cc3)cc2CC1=O	inactive: 0.999
O=C(O)C[C@H]1CC[C@H]2[C@@H](COC[C@H](O)CN2S(=O)(=O)c2ccc(F)cc2)O1	inactive: 0.979
